{"source": "the RNAGym collection of RNA variant scans (doi:10.7554/elife.90254)", "parents": {"B1": {"name": "OR4K15 (parent)", "chain": "GUUAACGGUCAUAGGCCAUGGAAACUAGGAGCACCAUUUCGCUGCCAGUGAAGAAAUGAACAAAGAAAAUCUGGGCCAGGCAGGCAUCAAAAGAAAUAGUCUUGCGCUCAACCAGAAAGUCUGUAAUCAUUUUAAGGGUA"}}, "note": "Read counts are not given, so values of variants with three or more changes are uncertain."}
{"variants_of": "B1", "assay": "self-cleavage, relative activity (ratio to wild type); higher = more cleavage; in vitro, sequencing; the parent is a self-cleaving ribozyme"}
{"variant": "A5G A33G U37C U38C U39C A62G A129G", "self-cleavage": 1.2}
{"variant": "A5U A56G A59G A67G U100C", "self-cleavage": 1.29}
{"variant": "A11G A62U A66C", "self-cleavage": 0.56}
{"variant": "U26C A27G A78G", "self-cleavage": 0.39}
{"variant": "A67G U87C A94U A117G A129U", "self-cleavage": 0.93}
{"variant": "A13G U97C A116G", "self-cleavage": 0.2}
{"variant": "C25U A114C U131C", "self-cleavage": 0.02}
{"variant": "A33U A114G A117G", "self-cleavage": 0.8}
{"variant": "A33G A52U U108C A117G", "self-cleavage": 0.01}
{"variant": "U2A A18U U26C A33G A68G A78G", "self-cleavage": 0.3}
{"variant": "A5G U9C G41A A51G A56G G106A A114G", "self-cleavage": 0.07}
{"variant": "A11U A68G A78G A114G", "self-cleavage": 0.03}
{"variant": "A22G A64G A110G", "self-cleavage": 0.22}
{"variant": "U49C A54G A68G", "self-cleavage": 1.41}
{"variant": "A11G A52G A54G A60G G79U", "self-cleavage": 0.32}
{"variant": "A30G A66G G119A", "self-cleavage": 2.06}
{"variant": "U37C A60C A116G", "self-cleavage": 1.09}
{"variant": "A23U A36G A63G A67G U103C", "self-cleavage": 1.57}
{"variant": "A33G U39A U127A", "self-cleavage": 1.09}
{"variant": "A24U U39C A59G A111U U122C", "self-cleavage": 0.07}
{"variant": "U19A A22G A55G A90C A126G", "self-cleavage": 0.57}
{"variant": "C17U U37C A68G A89G U120C U122C U127A", "self-cleavage": 0.32}
{"variant": "A11G A67G A116G", "self-cleavage": 0.42}
{"variant": "A22G A62G U102C U131C", "self-cleavage": 0.94}
{"variant": "G14A A22G A59U", "self-cleavage": 1.49}
{"variant": "U9C C32U U49A A59G", "self-cleavage": 1.56}
{"variant": "U2C A24G A78G A92G", "self-cleavage": 0.25}
{"variant": "U9A A94G U97C", "self-cleavage": 0.9}
{"variant": "A59G A78U U108C", "self-cleavage": 0.02}
{"variant": "A56G A114U U130C", "self-cleavage": 0.26}
{"variant": "A47U A69G U127C", "self-cleavage": 0.24}
{"variant": "A59G A66G A116G A129G U130C", "self-cleavage": 0.2}
{"variant": "C34U A51G A78C A96U A129G", "self-cleavage": 0.13}
{"variant": "U37C A64G G106C A118G", "self-cleavage": 0}
{"variant": "U3A C17U C35U", "self-cleavage": 1.18}
{"variant": "U38C A56G C61U A134G", "self-cleavage": 1.26}
{"variant": "A54G A116G U130C", "self-cleavage": 0.33}
{"variant": "G1A A33G U39C G104A", "self-cleavage": 0.06}
{"variant": "A11G A67G A92G A111G", "self-cleavage": 0.07}
{"variant": "U49C A52U A96G U102A", "self-cleavage": 1.33}
{"variant": "A11C A27G A30G A96G U108A", "self-cleavage": 0.06}
{"variant": "A68G U97A U102C", "self-cleavage": 1.68}
{"variant": "A24G U38C A67G A116G U122C", "self-cleavage": 0.37}
{"variant": "U39C A62G A94G", "self-cleavage": 1.46}
{"variant": "A5G G15U A60G", "self-cleavage": 1.18}
{"variant": "U38C A47G G74A U130C", "self-cleavage": 0.23}
{"variant": "A52G A63U G80U", "self-cleavage": 0.18}
{"variant": "U9C A52G A55U U131C", "self-cleavage": 1.59}
{"variant": "U2A A30U A62G", "self-cleavage": 0.73}
{"variant": "A36U A56G A95G A114U", "self-cleavage": 0.1}
{"variant": "C6A A63U A89G", "self-cleavage": 1.42}
{"variant": "A56G A82C A111G A118G", "self-cleavage": 0.01}
{"variant": "A24G A33G A56G G83A", "self-cleavage": 1.42}
{"variant": "A33G A66U U108C A116U U120C A129U", "self-cleavage": 0}
{"variant": "A5G A24G A96G", "self-cleavage": 0.55}
{"variant": "U37C A86U A116G", "self-cleavage": 0.53}
{"variant": "A67G U72C A135G", "self-cleavage": 0.45}
{"variant": "A11G A59G A69U U72A U102C A110U", "self-cleavage": 0.37}
{"variant": "U57G U103C A118U", "self-cleavage": 0.15}
{"variant": "U38C A56G A63G", "self-cleavage": 1.85}
{"variant": "A30G A67G A96C U130C", "self-cleavage": 0.64}
{"variant": "U57A A60G A63G A96G G137A", "self-cleavage": 0.76}
{"variant": "A63G U70C A82U", "self-cleavage": 0.12}
{"variant": "A11G A67G A78U U132C G137A", "self-cleavage": 0.41}
{"variant": "A52G U57C A92G", "self-cleavage": 1.51}
{"variant": "U26C A59G U130C", "self-cleavage": 0.79}
{"variant": "A33U U37A A116G", "self-cleavage": 0.98}
{"variant": "G20U A66G A117G", "self-cleavage": 2.01}
{"variant": "G21U U102C A116U U130C", "self-cleavage": 0.89}
{"variant": "A22G U38C A66G U132C", "self-cleavage": 1.51}
{"variant": "A62G A95G A116G", "self-cleavage": 1.46}
{"variant": "A5G A18G A54U U72A U87C", "self-cleavage": 0.2}
{"variant": "A68G A82C U133A", "self-cleavage": 0.19}
{"variant": "A5G A18G A111G A116U", "self-cleavage": 0}
{"variant": "A59G A96G A110G U127A", "self-cleavage": 0.17}
{"variant": "A22G U38C A59G G74A A117G", "self-cleavage": 0.1}
{"variant": "U2C U37C A67U A114U", "self-cleavage": 0.56}
{"variant": "U9C A78G A86G A117G", "self-cleavage": 0.33}
{"variant": "U9C A90G A95G U103A C121U", "self-cleavage": 0.94}
{"variant": "U9C A55G U120C", "self-cleavage": 0.57}
{"variant": "U2C A24G A118U", "self-cleavage": 0.24}
{"variant": "U9A A86G U108C A117C C121A", "self-cleavage": 0.01}
{"variant": "U39C U43C A54G A78G C88A U132C", "self-cleavage": 0.19}
{"variant": "A69G A89U A94G A135G", "self-cleavage": 1.85}
